# Laboratory results reported in PubChem BioAssay AID1671194 (National Center for Advancing Translational Sciences (NCATS), 2021).
# Among all 140,000 compounds or so, about 240 (0.17%) were called active. Inconclusive means that the source gave no clear call. Such entries were picked first, then a sample of the others. Calls follow the shape of the dose curve; as a rule, active = well fitted inhibition curve with a large enough effect; inconclusive = small, poorly fitted or top-dose-only effect; inactive = no such curve, though single readings can be large or run the other way. A potency beside an inconclusive call is a rough fit, not a confirmed value.
# Test: Primary qHTS assay for inhibitors of alpha-synuclein gene (SNCA) expression; also: nearly all actives have a fitted effect of over 45% in size;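 as to activity change, negative = inhibition: plate controls were DMSO cells for no effect and cell-free wells for full effect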
# Conditions: HEK-293 SNCA-luciferase knock-in, luminescence, 24 h; activity change, negative = inhibition: at 57.2 µM (top of the series) unless noted
# Potency is read from the fitted curve at half-maximal effect; tags tell the direction and shape of the fitted curve.
Compound,Potency,"activity change, negative = inhibition"
CCc1cccc(NC(=O)c2ccc(CNS(=O)(=O)c3ccc4c(c3)C(C)(C)C(=O)N4C)cc2)c1,"inconclusive: 39.8 µM [inhibitor, single point]",–
O=C(O)c1ccc(CN2CC(COc3ccccc3)C3(C2)CN(c2ccccc2)C3)cc1 (stereo not given),"inconclusive: 56.2 µM [inhibitor, single point]",–
CC(C)NC(=O)C1CCN(C(=O)c2ncn3c2COC(c2ccccc2)C3)CC1 (stereo not given),–,inactive: 61%
Cc1ccc(S(=O)(=O)N2CCC(n3c(C)nc4cccnc43)CC2)c(C)c1,"inconclusive: 11.2 µM [inhibitor, partial curve, poor fit]",–
O=C1Cc2c(-c3ccccc3OCc3ccccc3)n[nH]c2CN1Cc1ccccn1,"inconclusive: 44.7 µM [inhibitor, partial curve, poor fit]",–
CCc1noc(-c2ccn3c(CNC(=O)c4cccc(Cl)c4)nnc3c2)n1,"inconclusive: 17.8 µM [inhibitor, partial curve, poor fit]",–
Cc1cccc(C(=O)Nc2ccccc2C(=O)OCc2cc(=O)n3nc(C4CC4)sc3n2)c1,–,inactive: 31.7%
Cc1cc(C(C)(C)C)c(O)c(C)c1CC1=NCCN1,"inconclusive: 12.1 µM [inhibitor, full curve, poor fit]",–
CC#CCn1cc2c3c(cccc31)[C@H](CC(C)C)N[C@H](C(=O)NCc1ccco1)C2,–,inactive: -24.1% [at 87.6 µM]
CC(=O)N[C@H]1CCN(C(=O)C[C@@H]2[C@H](O)CCC3[C@](C)(CO)[C@H](OC(=O)Nc4cccc(C(F)(F)F)c4)CC[C@]32C)C1 (stereo not given in full),"inconclusive: 3.16 µM [inhibitor, single point]",–
Cc1ccc(OCC(=O)Nc2ccc(S(=O)(=O)N(Cc3ccccc3)c3ccccc3)cc2)cc1,"inconclusive: 35.5 µM [inhibitor, single point]",–
O=C(C1CCCC1)N1CCC(c2nc(-c3ccc4nc[nH]c4c3)no2)CC1,"inconclusive: 3.16 µM [inhibitor, single point]",–
O=C(NC1CCN(c2cc(-c3cccs3)[nH]n2)C1)c1ccc(F)cc1F (stereo not given),–,inactive: -13.7%
CC(C)NC(=O)c1ccc2nc(-c3cccnc3)oc2c1,–,inactive: 14.4% [at 87.6 µM]
O=c1c2c(n(Cc3cccnc3)n1CCc1ccccc1)CN(CC1CC1)CC2,"inconclusive: 35.5 µM [inhibitor, single point]",–
Fc1ccccc1-c1cnc2n[nH]c(-c3ccccc3)c2n1,"inconclusive: 70.8 µM [inhibitor, single point]",–
COc1ccc(-n2cc(-c3ccccc3)c3c(NCCc4ccc(OC)c(OC)c4)ncnc32)cc1,"inconclusive: 22.4 µM [inhibitor, single point]",–
Cc1ccc(C)c(N2CCN(C(=O)c3cc4n(n3)CC(c3ccc(Cl)cc3)OC4)CC2)c1 (stereo not given),"inconclusive: 5.62 µM [inhibitor, single point]",–
Cn1ncc2c(C(=O)NCCc3ccc(Cl)cc3)cc(-c3ccc([S+](C)(=O)[O-])cc3)nc21,"inconclusive: 7.08 µM [inhibitor, single point]",–
CC(C)NC(=O)CCC[C@@H]1[C@H]2CCCN3CCC[C@@H](CN1C)[C@@H]23,–,inactive: -2.88%

Compound,Potency,"activity change, negative = inhibition"
CN1CCN(c2ncnc3ccc(-c4ccoc4)cc23)CC1,"inconclusive: 2.24 µM [inhibitor, full curve, poor fit]",–
O=c1cc(N2CCOCC2)oc2c(-c3cccnc3)nccc12,–,inactive: 7.62% [at 87.6 µM]
COc1ccccc1Cn1c(=O)c(C(=O)NCc2ccc3c(c2)OCO3)nc2cccnc21,–,inactive: 1.69%
Cc1ccccc1NC(=O)Cn1ccn2nc3c(c2c1=O)CCCCC3,–,inactive: 3.37%
COc1ccc(CN2CC(COc3ccccc3)C3(C2)CN(c2ccccc2)C3)cc1O (stereo not given),"inconclusive: 56.2 µM [inhibitor, single point]",–
CNC(=O)CCC1CCN(C(=O)c2ccccc2)CC1,"inconclusive: 8.91 µM [inhibitor, single point]",–
Cc1cc(C)cc(-c2ccc(CN3CCCC3C(=O)N3CCN(Cc4ccccc4)CC3)cc2)c1 (stereo not given),–,inactive: 21.3%
NCCc1ccc(CN2CCC(Oc3ncccn3)CC2)cc1,"inconclusive: 8.91 µM [inhibitor, partial curve, poor fit]",–
CCN(c1ncnc2c1cnn2-c1cccc(Cl)c1)C1CCCCC1,–,inactive: -5.05%
O=C(CCCn1ccnc1)N1CCC2(CCC(=O)N(Cc3ccncc3)C2)CC1,"inconclusive: 39.8 µM [inhibitor, single point]",–
COc1cc(Cl)c(NS(=O)(=O)c2ccc(-c3coc(C)n3)cc2)c(OC)c1,"inconclusive: 10 µM [inhibitor, partial curve, poor fit]",–
Cc1ccc(C)c(-c2cc3c(=O)n(CCNC(=O)c4ccc(F)cc4Cl)ccn3n2)c1,"inconclusive: 12.6 µM [inhibitor, partial curve, poor fit]",–
O=C(O)COc1ccc(-c2nccc3c2C(=O)N(Cc2cccc(C(F)(F)F)c2)CC(COc2cccnc2)O3)cc1 (stereo not given),"inconclusive: 5.62 µM [inhibitor, partial curve, poor fit]",–
COCCNC(=O)C[C@@H]1C[C@H]2O[C@H](CNCc3ncccc3C)[C@@H](O)[C@H]2O1,"inconclusive: 7.94 µM [inhibitor, single point]",–
N#Cc1cnc(N2CCN(Cc3cncnc3)CC2)nc1N,"inconclusive: 5.62 µM [inhibitor, single point]",–
COc1ccc(N2CC(c3noc(-c4ccc(OC)cc4OC)n3)CC2=O)cc1 (stereo not given),–,inactive: 5.62%
Cc1ccc(C)c(Nc2nn3c(=O)c4ccc(C(=O)NCc5cccs5)cc4nc3s2)c1,"inconclusive: 1.12 µM [inhibitor, full curve, poor fit]",–
C=Cc1ccc(Cn2c(C(=O)O)c(CNCc3ccccc3)c3ccc(C)cc32)cc1,"inconclusive: 25.1 µM [inhibitor, single point]",–
CC1=C(C(=O)Nc2cccnc2)C(c2ccccc2)n2nc(-c3ccc(O)cc3)nc2N1 (stereo not given),"inconclusive: 10 µM [inhibitor, partial curve, poor fit]",–
O=C(NCc1ccccc1F)c1cn2cc(-c3ccc(F)cc3)sc2n1,–,inactive: 10.3% [at 87.6 µM]
